Some of the results follow.
Experiments:
Experiment in all cases: glycan array binding signal (z-score within array); higher = stronger binding
Conditions in all cases: glycan notation: IUPAC condensed, linker removed
[1] = target: Gal(b1-4)GlcNAc(b1-3)Gal(b1-4)[Fuc(a1-3)]GlcNAc(b1-3)Gal(b1-4)[Fuc(a1-3)]GlcNAc
Summary of the method: (§1)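 Glycan array data came from 3228 arrays in the Consortium for Functional Glycomics database, and only arrays with an available protein sequence were kept. Glycan names were put into IUPAC-condensed notation, and columns mapping to the same glycan were averaged. The binding signal is a within-array Z-score, averaged across arrays of one protein sequence run at different concentrations or buffers and across linkers. A negative Z-score can be read as non-binding.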

[2] = target: Gal(b1-4)GlcNAc(b1-3)GalNAc
Summary of the method: as §1

[3] = target: Gal(b1-4)GlcNAc(b1-3)[Fuc(a1-3)GlcNAc(b1-6)]Gal(b1-4)Glc
Summary of the method: as §1

[4] = target: Gal(b1-4)GlcNAc(b1-3)[Gal(b1-4)GlcNAc(b1-6)]Gal(b1-4)GlcNAc
Summary of the method: as §1

[5] = target: Gal(b1-4)GlcNAc(b1-3)[Gal(b1-4)GlcNAc(b1-6)]GalNAc
Summary of the method: as §1

[6] = target: Gal(b1-4)GlcNAc(b1-3)[GlcNAc(b1-6)]Gal(b1-4)GlcNAc
Summary of the method: as §1

[7] = target: Gal(b1-4)GlcNAc(b1-6)Gal(b1-4)GlcNAc
Summary of the method: as §1

[8] = target: Gal(b1-4)GlcNAc(b1-6)Gal(b1-4)GlcNAc(b1-6)GalNAc
Summary of the method: as §1

[9] = target: Gal(b1-4)GlcNAc(b1-6)GalNAc
Summary of the method: as §1

[10] = target: Gal(b1-4)GlcNAc(b1-6)[Gal(b1-3)]GalNAc
Summary of the method: as §1

[11] = target: Gal(b1-4)GlcNAc(b1-6)[Gal(b1-4)GlcNAc(b1-3)]GalNAc
Summary of the method: as §1

Gal(b1-4)GlcNAc6P = target: Gal(b1-4)GlcNAc6P
Summary of the method: as §1

Gal(b1-6)Gal = target: Gal(b1-6)Gal
Summary of the method: as §1

Gal3S(b1-3)GalNAc = target: Gal3S(b1-3)GalNAc
Summary of the method: as §1

Gal3S(b1-3)GlcNAc = target: Gal3S(b1-3)GlcNAc
Summary of the method: as §1

[12] = target: Gal3S(b1-3)[Fuc(a1-4)]GlcNAc
Summary of the method: as §1

Gal3S(b1-4)Glc = target: Gal3S(b1-4)Glc
Summary of the method: as §1

Gal3S(b1-4)Glc6S = target: Gal3S(b1-4)Glc6S
Summary of the method: as §1

Gal3S(b1-4)GlcNAc = target: Gal3S(b1-4)GlcNAc
Summary of the method: as §1

Gal3S(b1-4)GlcNAc6S = target: Gal3S(b1-4)GlcNAc6S
Summary of the method: as §1

[13] = target: Gal3S(b1-4)[Fuc(a1-3)]Glc6S
Summary of the method: as §1

[14] = target: Gal3S(b1-4)[Fuc(a1-3)]GlcNAc
Summary of the method: as §1

[15] = target: Gal3S(b1-4)[Fuc(a1-3)]GlcNAc6S
Summary of the method: as §1

Gal3S4S(b1-4)GlcNAc = target: Gal3S4S(b1-4)GlcNAc
Summary of the method: as §1

Gal3S6S(b1-4)GlcNAc = target: Gal3S6S(b1-4)GlcNAc
Summary of the method: as §1

Gal3S6S(b1-4)GlcNAc6S = target: Gal3S6S(b1-4)GlcNAc6S
Summary of the method: as §1

Gal4S(b1-4)GlcNAc = target: Gal4S(b1-4)GlcNAc
Summary of the method: as §1

Gal4S6S(b1-4)GlcNAc = target: Gal4S6S(b1-4)GlcNAc
Summary of the method: as §1

Gal6P(b1-4)GlcNAc = target: Gal6P(b1-4)GlcNAc
Summary of the method: as §1

Gal6S(b1-3)GlcNAc = target: Gal6S(b1-3)GlcNAc
Summary of the method: as §1

Gal6S(b1-3)GlcNAc6S = target: Gal6S(b1-3)GlcNAc6S
Summary of the method: as §1

Gal6S(b1-4)Glc = target: Gal6S(b1-4)Glc
Summary of the method: as §1

Gal6S(b1-4)Glc6S = target: Gal6S(b1-4)Glc6S
Summary of the method: as §1

Gal6S(b1-4)GlcNAc = target: Gal6S(b1-4)GlcNAc
Summary of the method: as §1

Gal6S(b1-4)GlcNAc6S = target: Gal6S(b1-4)GlcNAc6S
Summary of the method: as §1

GalNAc(a1-3)Gal = target: GalNAc(a1-3)Gal
Summary of the method: as §1

GalNAc(a1-3)GalNAc = target: GalNAc(a1-3)GalNAc
Summary of the method: as §1

[16] = target: GalNAc(a1-3)GalNAc(a1-3)Gal(a1-4)Gal(b1-4)GlcNAc
Summary of the method: as §1

B1: GSL-I (Griffonia simplicifolia) (protein)
chain: FNLPNFWSDVKDNIIFQGDANTTAGTLQLCKTNQYGNPLQYRAGRALYSDPVQLWDNKTGSVASFYTEFTFFLKITGDGPADGLAFFLAPPDSDVKDAGAYLGLFNKSTATQPSKNQVVAVEFDTWKNTDFPEPSYRHIGINVNSIVSVATKRWEDSDIFSGKIATARISYDGSAKILTVVLSYPDGADYILSHSVDLSKNLPNPIRVGISASTGANQFLTVYVLSWRFSSALQSTSVNAAMGPEIIRTVV
Q: Which “glycan array binding signal (z-score)” value [1] does the source give for B1 here?
A: -0.262

Q: What about the “glycan array binding signal (z-score)” value [2] of the same binder?
A: -0.195

Q: And the “glycan array binding signal (z-score)” value [3]?
A: -0.051

Q: And the “glycan array binding signal (z-score)” value [4]?
A: -0.208

Q: And the “glycan array binding signal (z-score)” value [5]?
A: -0.312

Q: What about the “glycan array binding signal (z-score)” value [6] of the same binder?
A: -0.209

Q: What about the “glycan array binding signal (z-score)” value [7] of the same binder?
A: -0.238

Q: And the “glycan array binding signal (z-score)” value [8]?
A: -0.305

Q: What about the “glycan array binding signal (z-score)” value [9] of the same binder?
A: -0.136

Q: And the “glycan array binding signal (z-score)” value [10]?
A: -0.18

Q: What about the “glycan array binding signal (z-score)” value [11] of the same binder?
A: -0.133

Q: What about the “glycan array binding signal (z-score)” value (Gal(b1-4)GlcNAc6P) of the same binder?
A: -0.178

Q: And the “glycan array binding signal (z-score)” value (Gal(b1-6)Gal)?
A: -0.146

Q: And the “glycan array binding signal (z-score)” value (Gal3S(b1-3)GalNAc)?
A: -0.109

Q: What about the “glycan array binding signal (z-score)” value (Gal3S(b1-3)GlcNAc) of the same binder?
A: -0.206

Q: What about the “glycan array binding signal (z-score)” value [12] of the same binder?
A: -0.182

Q: And the “glycan array binding signal (z-score)” value (Gal3S(b1-4)Glc)?
A: -0.256

Q: What about the “glycan array binding signal (z-score)” value (Gal3S(b1-4)Glc6S) of the same binder?
A: -0.168

Q: And the “glycan array binding signal (z-score)” value (Gal3S(b1-4)GlcNAc)?
A: -0.215

Q: And the “glycan array binding signal (z-score)” value (Gal3S(b1-4)GlcNAc6S)?
A: -0.307

Q: And the “glycan array binding signal (z-score)” value [13]?
A: 0.066

Q: And the “glycan array binding signal (z-score)” value [14]?
A: -0.22

Q: And the “glycan array binding signal (z-score)” value [15]?
A: -0.094

Q: And the “glycan array binding signal (z-score)” value (Gal3S4S(b1-4)GlcNAc)?
A: -0.278

Q: What about the “glycan array binding signal (z-score)” value (Gal3S6S(b1-4)GlcNAc) of the same binder?
A: -0.289

Q: What about the “glycan array binding signal (z-score)” value (Gal3S6S(b1-4)GlcNAc6S) of the same binder?
A: -0.314

Q: What about the “glycan array binding signal (z-score)” value (Gal4S(b1-4)GlcNAc) of the same binder?
A: -0.242

Q: What about the “glycan array binding signal (z-score)” value (Gal4S6S(b1-4)GlcNAc) of the same binder?
A: -0.291

Q: And the “glycan array binding signal (z-score)” value (Gal6P(b1-4)GlcNAc)?
A: -0.274

Q: What about the “glycan array binding signal (z-score)” value (Gal6S(b1-3)GlcNAc) of the same binder?
A: -0.39

Q: And the “glycan array binding signal (z-score)” value (Gal6S(b1-3)GlcNAc6S)?
A: -0.249

Q: And the “glycan array binding signal (z-score)” value (Gal6S(b1-4)Glc)?
A: -0.163

Q: What about the “glycan array binding signal (z-score)” value (Gal6S(b1-4)Glc6S) of the same binder?
A: -0.232

Q: What about the “glycan array binding signal (z-score)” value (Gal6S(b1-4)GlcNAc) of the same binder?
A: -0.195

Q: What about the “glycan array binding signal (z-score)” value (Gal6S(b1-4)GlcNAc6S) of the same binder?
A: -0.195

Q: And the “glycan array binding signal (z-score)” value (GalNAc(a1-3)Gal)?
A: 6.1

Q: What about the “glycan array binding signal (z-score)” value (GalNAc(a1-3)GalNAc) of the same binder?
A: 2.08

Q: What about the “glycan array binding signal (z-score)” value [16] of the same binder?
A: 1.85

— the supplement of paper PMC8728848
